Measured values as given in PMC11470957 (2024).

Legend:
KLHDC2 R56A mutant [1] = target: T1, KLHDC2 R56A mutant (UniProt Q9Y2U9 15-361, R56A); assay: ITC; ternary, with SJ46421
KLHDC2 R56A mutant [2] = target: T1, KLHDC2 R56A mutant; assay: ITC; ternary complex with PROTAC SJ46421

B1: BRD4^BD2 G-to-E swap mutant (G386E) (domain or fragment)
chain: not shown
KLHDC2 R56A mutant [1]
  Kd: 329 nM
KLHDC2 R56A mutant [2]
  Kd: 329 nM
